Data: PMC7819943, “Rice protein-binding microarrays: a tool to detect cis-acting elements near promoter regions in rice”
This is one part of the list.

target: T1, OsWOX13 (Oryza sativa, UniProt Q5QMM3 1-267); test: protein-binding microarray (RPBM); PBS, 2% BSA, 51.3 ng/ul salmon testes DNA, 50 uM zinc acetate, 200 nM TF, 25 C, 1 h; high values mean tight binding; conditions: protein: recombinant; tags: N-terminal polyhistidine and DsRed monomer fusion (pET32a); label: CyDye5-dUTP incorporated in the synthesized complementary strand; 3' TTTTT single-stranded linker to array surface; dsDNA, one strand shown
T1 sequence: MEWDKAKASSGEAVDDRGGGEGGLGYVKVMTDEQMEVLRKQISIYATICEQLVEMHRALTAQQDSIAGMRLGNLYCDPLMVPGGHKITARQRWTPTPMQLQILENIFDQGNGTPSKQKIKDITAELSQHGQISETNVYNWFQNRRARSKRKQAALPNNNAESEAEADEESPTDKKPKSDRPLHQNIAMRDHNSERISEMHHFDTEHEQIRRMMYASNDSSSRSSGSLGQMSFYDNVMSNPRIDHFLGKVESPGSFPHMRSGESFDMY
In short: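 Ni–NTA purification followed expression in E. coli BL21-CodonPlus of transcription factors fused N-terminally to a polyhistidine tag and DsRed. At 200 nM in PBS with 2% BSA, salmon testes DNA and 50 µM zinc acetate, the protein was incubated for 1 h at 25 °C with a custom Agilent array that had been primer-extended with Cy5-dUTP and blocked with 2% BSA. After washing, the array was read on an Axon 4000B scanner. The binding signal is per-feature fluorescence intensity in arbitrary units.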

Sequence	binding signal
GGCTTAATTGTTGATTAAACATCAGGCTCTTCTTGCATATCGGAGTCACCTAGTGCAG	54900 fluorescence intensity (a.u.)
GGATAATGATTTGACATTGATTGCGGTCTCGTTATTTTCTCGGAGTCACCTAGTGCAG	59500 fluorescence intensity (a.u.)
CCTAGACAGATTTTGTACCACATGCCTTGTATAGGCCTCCCGGAGTCACCTAGTGCAG	18700 fluorescence intensity (a.u.)
AGTTGTAAATCAAATTAAGTTTACTTTGTGTCCCTTTTCTCGGAGTCACCTAGTGCAG	4170 fluorescence intensity (a.u.)
ACGGCCCTGATTACGCCCATCCCGGAACATTTTAGCGGAGCGGAGTCACCTAGTGCAG	5600 fluorescence intensity (a.u.)
ACATAGACTAATAACAAAACAAATTATAGAATCTGTAAGTCGGAGTCACCTAGTGCAG	4180 fluorescence intensity (a.u.)
GTAAATTATATATTTATATAAATTTACATTGTAGTTACACCGGAGTCACCTAGTGCAG	35900 fluorescence intensity (a.u.)
TTATTAATTTAAATATGTTAGGATGTTGGATATAAGCGGTCGGAGTCACCTAGTGCAG	20000 fluorescence intensity (a.u.)
AACAATTGATTAAACAGGATTCAATAACAAATAAACAGGACGGAGTCACCTAGTGCAG	43000 fluorescence intensity (a.u.)
GACAATTATGTAAAATCATTAGCACACCAAAATTTAAAGGCGGAGTCACCTAGTGCAG	7500 fluorescence intensity (a.u.)
ATTTGATTGTTTAGCTATAGTCTACTATTTTAGGGTTTGGCGGAGTCACCTAGTGCAG	48000 fluorescence intensity (a.u.)
ATCACAGATTGTCTTGAATGATCCTGTTGAGAAGTATATGCGGAGTCACCTAGTGCAG	7240 fluorescence intensity (a.u.)
TATGATGGTCAATTTGCAGGTGGGACTGAATATTTCTTGTCGGAGTCACCTAGTGCAG	13100 fluorescence intensity (a.u.)
ATAATAATGGTTTAAACATACTTACCCATCCTCAGGCCAGCGGAGTCACCTAGTGCAG	3670 fluorescence intensity (a.u.)
GTAGGAACACTAATTAATCACTCATTGATATGTGTAATCCCGGAGTCACCTAGTGCAG	14700 fluorescence intensity (a.u.)
CCACTACAACTGATTACTCTCTCTATCCCAGAATATAGCACGGAGTCACCTAGTGCAG	3510 fluorescence intensity (a.u.)
AGATAGATAGATAGATAGATAGATAGATAGATAGATAGATCGGAGTCACCTAGTGCAG	55700 fluorescence intensity (a.u.)
TTCACATGACAAATTTATAAATGGCGTTATCAAATTTACCCGGAGTCACCTAGTGCAG	14500 fluorescence intensity (a.u.)
TATACAATTATTTAAACAAAATTACCACTTTGCTACAACTCGGAGTCACCTAGTGCAG	8450 fluorescence intensity (a.u.)
GGTTCATTGAGTTAACGAGCTAATCAAGCTCAACGAGCCACGGAGTCACCTAGTGCAG	9140 fluorescence intensity (a.u.)
GAAAATTTCTAGAGTTTAATTAGTGCAGAGTGCAGAAGGTCGGAGTCACCTAGTGCAG	7530 fluorescence intensity (a.u.)

Sequence	binding signal
GTGTCAGTAATTTGGTGCGGAATAAATCCACCAATCAGCTCGGAGTCACCTAGTGCAG	7210 fluorescence intensity (a.u.)
AGAATATTCATAATTTATATTTAAATATTATCTTACATGACGGAGTCACCTAGTGCAG	3300 fluorescence intensity (a.u.)
GGTCGACTTACGCCAATCACCAAGTCGCGCGTACGCACGGCGGAGTCACCTAGTGCAG	5000 fluorescence intensity (a.u.)
TTCCCAAACAGACATGATTTAGCGTGAGACGTCGTTGCTACGGAGTCACCTAGTGCAG	10400 fluorescence intensity (a.u.)
TAATTAATTATAATTAATTAATCCTACTGGTGCTTTCCTTCGGAGTCACCTAGTGCAG	54300 fluorescence intensity (a.u.)
GTCTTCAAATTATATTAGTTATAACTATAGTTCACACAATCGGAGTCACCTAGTGCAG	4610 fluorescence intensity (a.u.)
CTGCACGAAGTACTGACCGGAGTGTACGGGACAAGCTCCGCGGAGTCACCTAGTGCAG	4440 fluorescence intensity (a.u.)
TCCTTTAATTATATAATAGATTTCCAGATATTCTTTTACCCGGAGTCACCTAGTGCAG	26000 fluorescence intensity (a.u.)
TTGAGCTTTTATCTCTTGATTGGTTCTTTGTGTTATTCTCCGGAGTCACCTAGTGCAG	6300 fluorescence intensity (a.u.)
ATGATTATGTATGTAGCTAGCCAGAGCGATTTGGAACGGACGGAGTCACCTAGTGCAG	4670 fluorescence intensity (a.u.)
CAATAATGGTAAATTAACTAGTCAAAGTGAAAGTGTTTAGCGGAGTCACCTAGTGCAG	18000 fluorescence intensity (a.u.)
GGCCGCTGATCAGTTTGTAATTAGTTTAATCCGAACGTACCGGAGTCACCTAGTGCAG	19100 fluorescence intensity (a.u.)
ACAAATTAATGCATGCCAACTCCAAAGTCAAATATGTTCTCGGAGTCACCTAGTGCAG	7230 fluorescence intensity (a.u.)
CAATGATTTAGCATTGTTTCTCACAAAACCATTCAAGTTCCGGAGTCACCTAGTGCAG	5520 fluorescence intensity (a.u.)
TGATAAATTACCCATCTATTAGTCATACCAGTGGCTTTGTCGGAGTCACCTAGTGCAG	18400 fluorescence intensity (a.u.)
TGTCTCTTTCTGTCTATCTCCCTCCCTGTCATTCTATCTCCGGAGTCACCTAGTGCAG	4430 fluorescence intensity (a.u.)
CAGACGGATTATGTAATTTGTTTTATTATTAATTAGTCTACGGAGTCACCTAGTGCAG	13100 fluorescence intensity (a.u.)
TATAGGTAGCCAATTACAAGCTAATTAAAGCAGTAACCGTCGGAGTCACCTAGTGCAG	12500 fluorescence intensity (a.u.)
CTATTATACTGATGATAACCAATCATACTTCTCGAGGTTTCGGAGTCACCTAGTGCAG	11300 fluorescence intensity (a.u.)
GCTGATTAGGATCTATTAAACCTGCTCTAAGGGCATCAGTCGGAGTCACCTAGTGCAG	33000 fluorescence intensity (a.u.)
CTCTTCACATGATATTATAATTGAAGCATATAAACTTGCACGGAGTCACCTAGTGCAG	7260 fluorescence intensity (a.u.)
